Read counts are not given, so values of variants with three or more changes are uncertain.
B1: LINE1-full (parent)
chain: UACGUAGGUGGUUUUCCCCUGAUAGUGCUAAGGGGGCCUGGAAGUUUGGACUGGGCAGAGCUCAACACAGCGUGGCAAAGUGGCUGUGGCUAGACUGCCUCUCUGGAUUCCUCGUCACUCAGCAGGGCAUCUCUGAGAGAAAUGCC

Variants of: B1
Assay: self-cleavage, relative activity (ratio to wild type); higher = more cleavage; in vitro, sequencing; the parent is a self-cleaving ribozyme

Row | Variant | self-cleavage
1 | U52A A57G A78G | 0
2 | G53A G80A U85C G88A C128U U134G | 0.04
3 | A57U C66U G97A | 0.05
4 | U52A A65G A121G | 0
5 | C56U A67G U81G C133A | 0.05
6 | A57G A124U U132C | 1.72
7 | G58A C71G U143C | 0.03
8 | U52A A67U U100A | 0.08
9 | A57U U85A A129G | 0
10 | A57G A79G U115A | 1.15
11 | A57U U85C U104C A107U | 0
12 | U52A G53A U85C | 0.21
13 | G54A U85A G125A A129G | 0.05
14 | A57G U115C A141G | 1.69
15 | A57G U81A A141U | 0.93
16 | G54A U62C A69G A107G | 0.05
17 | U52G C84G A107U U115C U130C | 0.61
18 | A57U A94G A140G | 0.26
19 | A57U C76U U130C | 0.17
20 | A57G G70A A78G | 0.06
21 | A57U A67U A141G | 0.06

Row | Variant | self-cleavage
22 | A57U A59U U73C A124G U130C | 0
23 | A57U A107C U132C | 0.12
24 | U52A A107U U132C | 0.66
25 | A57G A77G A138G | 0.71
26 | A50U G114A A117G | 1.16
27 | U52C G122A A140G | 1.17
28 | U52C A77U A138U | 1.77
29 | A57U U102C G126U | 0.1
30 | A57U A78G A121C G125U | 0.02
31 | A57G U134C A138U | 0.41
32 | A57G U81C C98U | 0.12
33 | U52A A138G A140G | 1.69
34 | U52C C56A A77G U87G | 0.03
35 | U52C U85A A92U A107U U132A A142G | 0.07
36 | A57G U109C A141G | 0.47
37 | A57U A124C U132A | 0.07
38 | A57G C71U C131U | 0.55
39 | G53U U109C G122A | 1.55
40 | A57G A77G A129G | 0.96
41 | G53A G88A U104C U130A | 0.02
42 | A50G U104A U109A | 0.66

Row | Variant | self-cleavage
43 | A50U A59G A69G U112C | 0
44 | A57G U62C A129U A138U | 0.1
45 | U52A A67U A77C A78G A136G | 0.14
46 | A57U A59G A77G G126U A136G | 0.1
47 | G54U A64G A67C A117G | 0
48 | A57G U91C A94U A138G | 0
49 | G53A U104C A107G A121C A138G | 1.53
50 | G58A U62C A136G | 0
51 | A57G U112A U130C A140G | 1.3
52 | G55A A57G U85A U132C | 0
53 | G53A U85C U87A | 0.05
54 | U52C A59U A94G | 2.51
55 | A57G U73A U115A | 0.34
56 | G55U A67C U96C | 0.05
57 | A57G U62C U134C | 0.24
58 | G54A U102C U109C A136U | 0.21
59 | G54A U130A A140G | 0.58
60 | C51A A77G A141G | 2.33
61 | U52A U73C U130C A138U | 2.04
62 | A50U A138G A141G | 0.85
63 | G54U A67U A124G | 0.04

Row | Variant | self-cleavage
64 | A57U A77G U81A A94G A141G | 0.09
65 | A57U G139A A140U | 0.08
66 | U52A U85C A140G | 0.26
67 | G53U U85C A140G | 0.07
68 | A50U U62C U73C U91A | 0.12
69 | A57G U87A A138G | 0.08
70 | A50U A79G A121C A142G | 1.38
71 | A57U U102A A129G A142G | 0.08
72 | U52A A77U U85A A129U | 0.06
73 | A57U A59G A94U | 0.04
74 | A57G A59G G86A U100G U115A | 0
75 | A57U U115C A140G | 0.08
76 | A57C A69G A136U | 0
77 | A50U A77G U108A | 1.62
78 | G54C U91C U130C | 0.6
79 | G53U U100C G106U C131U | 1.58
80 | C51U G80U U85C U102C A138G | 0
81 | A50U G80U U104C U130C | 1.53
82 | U52A A65G A142G | 0.09
83 | A57U U91A U102G G105A C113U | 0.02
